Consider 55 compounds from PubChem BioAssay AID938 (National Center for Advancing Translational Sciences (NCATS), 2007).

About 1,800 (2.5%) of roughly 73,000 compounds were called active. Inconclusive results (about 13%) are left out. The call rests on the fitted dose curve; in most records, active means well fitted activation curve with a large enough effect; inconclusive means small, poorly fitted or top-dose-only effect; inactive means no such curve, though single readings can be large or run the other way. The entries are a selection whose mix differs from that of the whole data set. Some compounds were tested as several samples or in several runs, with calls that do not always agree.
Potency means the concentration at half of the fitted maximal effect.

The nature of the test: qHTS Assay for Agonists of the Thyroid Stimulating Hormone Receptor: Activators of Intracellular cAMP Concentrations in Parental HEK 293. Further: nearly all actives have a fitted effect of over 55% in size. On activation: % of control where 0% means no effect. Particulars: parental HEK293 CNG cAMP sensor, membrane potential fluorescence; series mostly up to 57.1 µM; activation: at the top concentration. The method in brief: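 Parental HEK 293 cells stably expressing a cAMP-gated CNG channel were loaded with membrane potential dye containing 100 uM RO 20-1724 for 60 min. Compound added for 30 min; depolarization read as fluorescence intensity at 590 nm.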
On the technique in general: qHTS replaces the single test concentration by a dilution series.
On to `C[C@@]12CC[C@@H]3c4ccc(O)cc4CC[C@H]3[C@H]1CC[C@H]2O`, for which the “activation” value was inactive: -7.11% [at 25.6 µM].
Regarding `CCOC(=O)c1[nH]c2ccc(F)cc2c1NC(=O)CN1CCN(C/C=C/c2ccccc2)CC1`, the “activation” value is inactive: -96.9%.
Take `OC1CCCC1`: the “activation” value is inactive: -19%.
On to `CCC1CCCCN1C(=O)COC(=O)c1cc2ccccc2cc1O` (stereo not given), for which the Potency is active: 31.6 µM.
In the case of `COc1cccc(OC)c1-c1nnc(-c2cn(C)c3ccccc23)o1`, the Potency is active: 20 µM.
`Cc1ccc(-c2nnc(N3CCN(C(=O)CN4CCOCC4)CC3)c3ccccc23)cc1`: the “activation” value was inactive: 0.964%.
Regarding `O=C(Nc1ccccc1Oc1ccccc1)c1ccc(Br)o1`, the activation is inactive: 86.7% [at 11.4 µM].
As for `O=C1CN(/N=C/c2ccc([N+](=O)[O-])o2)C(=O)N1`, the “activation” value was inactive: -12.4%.
Consider `O=C(c1cc(C(F)(F)F)cc(C(F)(F)F)c1)N1CCC2(CC1)CCN(c1ccccn1)CC2`, for which the Potency was active: 15.8 µM.
In the case of `CC(C)C(OC(=O)c1ccco1)C(=O)NCc1ccccc1` (stereo not given), the Potency was active: 25.1 µM.
`C[C@@H](N)C1CCC(C(=O)Nc2ccncc2)CC1` (stereo not given in full): the “activation” value is inactive: -6.71%.
Turning to `CCCC[C@@H]1C[C@H]1C(NC(=O)c1ccccc1)c1ccc(C(F)(F)F)cc1` (stereo not given in full), the Potency was active: 3.16 µM.
On to `COC(=O)c1c(C)[nH]c(C)c1C(=O)c1ccccc1Cc1ccccc1`, for which the “activation” value was inactive: 5.21%.
On to `C/C(C=O)=C/c1ccccc1`, for which the “activation” value is inactive: 33.5%.
For `C=CCn1c(C)cc(C(=O)CSc2nnc(NCc3ccccc3)s2)c1C`, the “activation” value is inactive: 49.6%.
Take `CC(=O)OC(C)C`: the “activation” value is inactive: 5.44%.
Still for that read-out and setting: with `NCCSSCCN` the figure was inactive: 8.16% [at 11.4 µM].
For the compound `N#CCCn1c(=O)c(-c2ccccc2)nc2cnc(Nc3ccccc3)nc21`, the Potency is active: 10 µM.
For the compound `O=C(CSc1nnc(-c2ccncc2)n1C1CCCCC1)Nc1ccccc1`, the “activation” value was inactive: 4.69%.
For `C#C[C@]1(O)CC[C@H]2[C@@H]3CCc4cc(O)ccc4[C@H]3CC[C@@]21C`, the “activation” value was inactive: -18.6%.
On to `CN(C)C(=O)[C@@H]1C[C@H]1[C@@H](NC(=O)OCc1ccccc1)c1ccccc1`, for which the “activation” value was inactive: 12.7%.
For `Oc1ccc(-c2nc3ccccn3c2NCc2ccc3c(c2)OCO3)cc1`, the “activation” value is inactive: -30.6%.
Same read-out and setting: with `Cc1ccc(Cn2ccc(NC(=O)c3cc(-c4ccc5c(c4)OCO5)on3)n2)cc1` the figure was inactive: -2.12%.
Turning to `Clc1ccc(-c2nnc(-c3ccccc3)o2)c(Cl)c1`, the Potency was active: 31.6 µM.
`O=C(NCC(=O)N(Cc1ccc(F)cc1)C(C(=O)NC1CCCC1)c1ccco1)c1ccco1` (stereo not given): the Potency is active: 15.8 µM.
For `Nc1nonc1-c1nc2ccccc2n1CC(=O)NC1CCCC1`, the Potency was active: 6.31 µM.
In the case of `CCOC(=O)c1c(N)sc2c(O)c(Br)ccc12`, the “activation” value is inactive: -33.6%.
On the same count and under the same terms, with `C=C(C)C(=O)OCCCCCC` the figure was inactive: -7.59%.
For `CC(=O)NCCNc1nc(-c2ccc(N(C)C)cc2)nc2ccccc12`, the “activation” value is inactive: -56.5%.
`COc1cc2[nH]c3c(N4CCN(c5ccc(Cl)cc5)CC4)ncnc3c2cc1OC`: the “activation” value is inactive: -38.6%.
Take `COc1ccc(NC(=O)N2CC3(CCN(C(=O)c4c(C)noc4C)CC3)C2)cc1`: the Potency was active: 12.6 µM.
With `Oc1cc2c(cc1O)CN(C(=S)NCCc1ccc(Cl)cc1)CCC2`, the “activation” value was inactive: -30.9%.
On to `COc1ccc2c(c1)c(CC(=O)N1CCOCC1)c(C)n2C(=O)c1ccc(Cl)cc1`, for which the “activation” value was inactive: 14%.
With `CNCCCC12CCC(c3ccccc31)c1ccccc12`, the “activation” value was inactive: 8.12%.
Regarding `Cn1c(/N=C/c2c(O)ccc3ccccc23)nc2ccccc21`, the activation was inactive: -39.6% [at 11.4 µM].
On to `O=C(c1cccc(F)c1)N1CCC2(CC1)CCN(c1ccncc1)CC2`, for which the Potency was active: 3.98 µM.
For `OCC(CO)(CO)N=Cc1c(O)ccc2ccccc12`, the “activation” value was inactive: -3.51%.
On to `CCCCCCCCC`, for which the “activation” value was inactive: -36.5%.
Take `CCOc1ccccc1N1CCN(CC(O)COc2ccc3c(C)cc(=O)oc3c2)CC1` (stereo not given): the “activation” value was inactive: -35.9%.
For the compound `COc1cc(NC(=O)c2ccc(Br)o2)ccc1NC(=O)C(C)C`, the “activation” value is inactive: -54.2%.
Turning to `CC1(C)CC(=O)c2cc(OCC(=O)NCCN3CCCc4ccccc43)ccc2O1`, the “activation” value was inactive: 29.2%.
Turning to `CSc1ccc2[nH]c(=O)cc(C)c2c1`, the “activation” value is inactive: 2.85%.
Turning to `CC(=O)CCCCn1c(=O)c2c(ncn2C)n(C)c1=O`, the Potency result is “inactive”.
As for `Cc1ccc(-c2cc(C(F)F)n3ncc(C(=O)N4CCN(c5ccccn5)CC4)c3n2)cc1`, the Potency is active: 31.6 µM.
`CCCCNc1cc(C(=O)O)cc(S(N)(=O)=O)c1Oc1ccccc1`: the “activation” value was inactive: 13.6% [at 25.6 µM].
In the case of `CCOC(=O)c1cc(C#N)c(SCc2ccc(C#N)cc2)nc1C`, the Potency is active: 31.6 µM.
`Nc1nonc1-c1nc2ccccc2n1CC(=O)N1CCN(c2ccc(F)cc2)CC1`: the Potency was active: 25.1 µM.
With `C[C@H]1NC(=O)NC1=O`, the “activation” value is inactive: -0.556% [at 25.6 µM].
With `CC(=O)OCC1OC(C#CC(C)(C)C)C=CC1OC(C)=O` (stereo not given), the activation is inactive: 0.291% [at 11.4 µM].
Regarding `N=c1c2c(-c3ccccc3)c(-c3ccccc3)n(Cc3ccco3)c2ncn1Cc1ccco1`, the “activation” value was inactive: -42.3%.
In the case of `O=C(c1ccco1)N1CCC2(CC1)CN(c1ncccn1)C2`, the “activation” value was inactive: -3.5%.
As for `CCOc1c(C(N)=O)c(-c2ccccc2)c2c(=O)[nH]c3ccccc3n12`, the “activation” value was inactive: -58.9%.
As for `Cc1ccc(Cn2c(=N)c(C(=O)NCc3ccco3)cc3c(=O)n4ccccc4nc32)cc1`, the “activation” value is inactive: -84.1%.
Turning to `CCN(CC)CCOC(=O)c1ccc(N)cc1`, the “activation” value is inactive: -0.289% [at 25.6 µM].
Turning to `O=S(=O)(c1ccc(OCC(O)CN2CCN(c3ccccc3Cl)CC2)cc1)N1CCOCC1` (stereo not given), the “activation” value was inactive: -33.3%.
